Measurements published in PubChem BioAssay AID1645882 (National Center for Advancing Translational Sciences (NCATS), 2021).
About 120 (0.75%) of roughly 16,000 compounds were called active. Not shown: some 4% with an inconclusive outcome. The call rests on the fitted dose curve; in most records, active means well fitted inhibition curve with a large enough effect; inconclusive means small, poorly fitted or top-dose-only effect; inactive means no such curve, though single readings can be large or run the other way. Some of the results follow.

These compounds were tested against Rap guanine nucleotide exchange factor 3 (Homo sapiens) (UniProt O95398) (assay: Validation qHTS for antagonist of cAMP-regulated guanine nucleotide exchange factor 3 (EPAC1)). Settings: EPAC1 Rap1B-BODIPY-GDP exchange, fluorescence; series mostly up to 150 µM; activity change, negative = inhibition: at the top concentration.
From the text: Assay Provider (PI): Xiaodong Cheng Ph.D.
The University of Texas Medical Branch, […], TX
In multi-cellular eukaryotic organisms, the effects of cAMP are transduced by two ubiquitously-expressed intracellular cAMP receptors, the classic protein kinase A/cAMP-dependent protein kinase (PKA/cAPK) and the more recently discovered exchange protein directly activated by cAMP/cAMP-regulated guanine nucleotide exchange factor (EPAC/cAMP-GEF). Both PKA and EPAC are ubiquitously expressed in all tissues, and an increase in intracellular cAMP levels will lead to the activation of both PKA and EPAC. Therefore, careful dissections of the individual role and relative contribution of EPAC and PKA within the overall cAMP signaling in various model systems are critical for further elucidating the mechanism of cAMP signaling. To date no EPAC-specific antagonists and agonist, as well as isoform-specific agonists have been reported, and developing EPAC-specific pharmacological probes to determine the physiological functions that EPAC play in the overall cAMP-mediated signaling remains a major challenge within the research field. Furthermore, identified regulators of EPAC may lead to new mechanism-based therapeutic strategies specifically targeting the EPAC / cAMP-signaling components as EPAC has been implicated to play important roles in major human pathological conditions such as diabetes, heart disease, and cancer.
This qHTS will be used to screen the Molecular Libraries Small Molecule Repository (MLSMR) as a concentration-titration series using the NCGC unique quantitative screening (qHTS) platform to find activators for EPAC1. In addition, this assay will also be used as a counterscreen for the EPAC2 qHTS. This fluorescent based assay is developed and validated for EPAC1 that measures exchange using EPAC effector Rap1 complex with BODIPY-GDP, a GDP analog with a tethered fluorophores. Activators are identified by monitoring the change in fluorescence signal as the exchanged free BODIPY-GDP has a reduced fluorescence compared to Rap1-bound BODIPY-GDP. Increase in signal (activation) is the desired outcome for the EPAC1 agonist while no activity in this assay is desired for the EPAC2 agonist counterscreen.
[1] de Rooij, J., Zwartkruis, F. J., Verheijen, M. H., Cool, R. H., Nijman, S. M., Wittinghofer, A., and Bos, J.L. (1998) Nature 396, 474-477.
Briefly, three uL of reagents (100 nM EPAC1, 250 nM RAP1B-BODIPY-GDP, 50 uM GDP) were dispensed into a 1536-well Greiner black solid-bottom medium binding assay plate. Controls and test compounds (23 nL) were transferred to the plate via a Kalypsys pin tool equipped with a 1536-pin array. The plates were centrifuged at 1,000 rpm for 15 seconds followed by 5 minute incubation at room temperature. The assay plates were read at 5 minute intervals for 30 minutes in the ViewLux plate reader using 480nm excitation and 540nm emission filters. The results were normalized to the […] positive control ATA and DMSO.
Further: nearly all actives have a fitted effect of over 75% in size.

Chain of UniProt O95398 (O95398 whole entry, looked up): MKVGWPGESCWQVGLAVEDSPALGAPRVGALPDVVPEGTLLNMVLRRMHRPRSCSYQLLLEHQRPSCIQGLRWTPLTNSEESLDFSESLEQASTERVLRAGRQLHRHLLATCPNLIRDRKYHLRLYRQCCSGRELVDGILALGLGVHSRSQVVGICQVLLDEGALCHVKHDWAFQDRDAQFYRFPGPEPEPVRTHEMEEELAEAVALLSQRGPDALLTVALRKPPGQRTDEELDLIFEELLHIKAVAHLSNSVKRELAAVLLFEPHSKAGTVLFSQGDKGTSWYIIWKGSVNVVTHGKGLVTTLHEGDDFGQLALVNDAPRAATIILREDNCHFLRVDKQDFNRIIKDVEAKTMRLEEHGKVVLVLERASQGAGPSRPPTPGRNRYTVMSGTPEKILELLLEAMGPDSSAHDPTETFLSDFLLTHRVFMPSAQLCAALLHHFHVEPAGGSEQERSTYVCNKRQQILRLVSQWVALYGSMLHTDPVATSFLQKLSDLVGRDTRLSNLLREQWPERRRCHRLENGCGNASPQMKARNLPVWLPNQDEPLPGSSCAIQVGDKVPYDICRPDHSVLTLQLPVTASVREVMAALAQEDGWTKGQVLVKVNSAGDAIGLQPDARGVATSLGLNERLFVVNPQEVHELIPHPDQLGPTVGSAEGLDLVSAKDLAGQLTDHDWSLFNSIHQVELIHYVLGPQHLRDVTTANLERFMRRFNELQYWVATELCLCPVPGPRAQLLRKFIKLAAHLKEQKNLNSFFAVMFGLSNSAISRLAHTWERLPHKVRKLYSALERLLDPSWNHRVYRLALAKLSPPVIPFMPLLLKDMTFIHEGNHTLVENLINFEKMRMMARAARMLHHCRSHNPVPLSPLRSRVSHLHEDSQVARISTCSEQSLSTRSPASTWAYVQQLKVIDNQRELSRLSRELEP

Activity change, negative = inhibition, inactive:
C=C(CC)C(=O)c1ccc(OCC(=O)O)c(Cl)c1Cl, Cc1cnc(SCC2CCCO2)nc1C1CCCN(Cc2cc3c(cc2Cl)OCO3)C1 (stereo not drawn) 8.22%, OCCCNCc1cc2cc3c(cc2nc1N1CCN(c2cccc(Cl)c2)CC1)OCO3 -14.4%, OC[C@H]1O[C@@H](O[C@@H]2[C@@H](CO)O[C@](O)(CO)[C@H]2O)[C@H](O)[C@@H](O)[C@H]1O, CCCCCCOC(=O)C1(O)CC2OC1(C)n1c3ccccc3c3c4c(c5c6ccccc6n2c5c31)C(=O)NC4 (stereo not drawn) -12.7% [at 15.3 µM], Cn1cccc1C(=O)N1CCC[C@@]2(CCN(C(=O)Nc3cccc(F)c3)C2)C1 16%, N#Cc1ccc(CN2CC3(CCN(C(=O)c4ccco4)CC3)C2)cc1 4.53%, COc1cccc(Nc2ncc3nc(-c4cccs4)c(=O)n(Cc4cccs4)c3n2)c1 36.1%, CCCCCCCCCCCCCCCC(=O)O[C@H](CC(=O)O)C[N+](C)(C)C 0.0674%, CCCOC(C(=O)OC1CCN(C)CC1)(c1ccccc1)c1ccccc1 14.4%, CC1(C)CC[C@]2(C(=O)O)CC[C@@]3(C)C(=CCC4[C@@]5(C)CCC(O)C(C)(C)C5CC[C@@]43C)C2C1 (stereo partly drawn) 5.16%, COc1cccc(Cn2c(=O)c(-c3ccc(Cl)cc3)nc3cnc(N4CCN(C)CC4)nc32)c1 26.2%, CCCCCC1C(=O)CCC1CC(=O)OC (stereo not drawn) 9.9%, CS(=O)(=O)Nc1cccc(-c2nc(NCCN3CCOCC3)c3ccccc3n2)c1 9.51%, CS(=O)(=O)c1ccc([C@@H](O)[C@@H](CF)NC(=O)C(Cl)Cl)cc1 14.1% [at 75.8 µM], CCN(CC)CCCC(C)Nc1ccnc2cc(Cl)ccc12 (stereo not drawn), CCCN1CCC(=O)N(CCN=[N+]=[N-])CC1 1%, CCc1nc2cc(C(=O)N(C)C3CCOC3)cc(NC(=O)c3ccccc3OC)c2n1C (stereo not drawn) 2.07%, O=C(c1cc(C(F)(F)F)cc(C(F)(F)F)c1)N1CCC2(CCN(Cc3ccncc3)CC2)CC1 15.9%, COc1c2c(cc3c1C(CC(=O)c1c(O)c(OC)c4occc4c1OC)[N+](C)(C)CC3)OCO2 (stereo not drawn) 17.6%, Cc1ccc2cc(CN(C(=O)c3ccc4c(c3)OCO4)C3CC3)c(N(C)C)nc2c1 20.3%, N#CC[C@H](Cc1ccccc1)N1CCN(CCc2ccccc2)CCC1=O 13.5%, O=C1CC(c2ccccc2)Oc2ccccc21 (stereo not drawn) -2.08%, FCOC(C(F)(F)F)C(F)(F)F 12%, C[C@@H]1NS(=O)(=O)[C@H]2C[C@@H]3C=C[C@]2(O3)[C@H]1OC(=O)Nc1ccc(C(F)(F)F)cc1[N+](=O)[O-] -18.1%, Cc1cccc(C)c1NC(=O)c1ccccc1C(=O)O 13.3%, CCNC(=O)[C@H]1O[C@@H](n2cnc3c(N)nc(NCCc4ccc(CCC(=O)O)cc4)nc32)[C@H](O)[C@@H]1O 14.4% [at 75.8 µM], c1ccc2c(Nc3ccncc3)nc(-c3ccoc3)nc2c1 3.21%, CNCCNS(=O)(=O)c1cccc2cnccc12, O=C(O)Cn1c(C(=O)Nc2nc(-c3ccccc3Cl)cs2)cc2ccccc21 -11.7%, CC1CC[C@@]23CCC4(C)[C@@]5(C)CCC6C(C)(C)C(=O)CC[C@@]6(C)C5C=C[C@@]4(OC2=O)C3C1C (stereo partly drawn) 13.2%, COc1cc(-c2c(OC)cccc2OC)cc2c1OCCN(Cc1cn[nH]c1-c1ccc(Cl)cc1)C2 -6.31%, NNC(=O)CP(=O)(c1ccccc1)c1ccccc1 11.6%, C[C@](N)(Cc1ccc(O)cc1)C(=O)O, COc1cc2c(cc1OC)[C@@H]1CC(=O)[C@@H](CC(C)C)CN1CC2 9.84%, Cc1ccccc1-c1cc(-n2ccnc2)ncn1 16.8%, COc1ccc(NC(=O)N2CCC3(CC2)CCN(C(=O)c2csnn2)CC3)cc1 10.3%, CS(=O)(=O)N1CCC2(CCCN(c3ncccn3)C2)CC1 18.6%, N#CCCn1c(=O)c(CCc2ccccc2)nc2cnc(Nc3ccccc3)nc21 3.88%, O=c1c(-c2cccs2)nc2cnc(Oc3cccc(Cl)c3)nc2n1C1CC1 12.4%, O=Cc1cc2c3c(c1)CCCN3CCC2 -25.4%, Cc1nc2cnc(N3CCN(C)CC3)nc2n(-c2ccccc2)c1=O 7.27%, Cc1c(Br)cnc2ccccc12 19.6%, CS(=O)(=O)N1CCC2(CC1)CN(c1cccc(-c3ccccc3)c1)C2 -8.93%, O=C(c1ccco1)N1CCC[C@@]2(CCN(c3ccncc3)C2)C1 13.7%, COCCn1c(=O)cnc2cnc(N3CCOCC3)nc21 -7.33%, CC[C@H](C)[C@H](NC(=O)OCC1c2ccccc2-c2ccccc21)C(=O)O 6.64%, CCN(CC)CCNC(=O)c1ccc(NS(C)(=O)=O)cc1 10.1% [at 75.8 µM], O=C(c1ccncc1)N1CCC[C@@]2(CCN(Cc3ccncc3)C2)C1 32.6%, O=c1c(-c2cc(F)cc(F)c2)nc2cnc(N3CCNCC3)nc2n1C1CC1 -2.04%, Nc1nc(N)c(N)c(=O)[nH]1 13.3%, c1cncc(-c2nccc(NCc3cccs3)n2)c1 4.55%, CC(C)CN1CC[C@@]2(CCCN(C(=O)c3cc(C(F)(F)F)cc(C(F)(F)F)c3)C2)C1 -14.1%, CCOC(=O)OC(C)OC(=O)C1N2C(=O)C(NC(=O)C(N)c3ccccc3)C2SC1(C)C (stereo not drawn) -6.65%, COc1cc(OC)c2cc(-c3ccncc3)cnc2c1 13%, O=C(COc1ccc(Cl)cc1)OCCNC12CC3CC(CC(C3)C1)C2 3.76%, O=C(c1ccncc1)N1CCC2(CC1)CN(Cc1cc(C(F)(F)F)cc(C(F)(F)F)c1)C2 4.3%, NC(=O)N[C@@H](CCC(=O)O)C(=O)O 5%, O=C[C@H](O)[C@@H](O)[C@H](O[C@H]1O[C@H](CO)[C@@H](O[C@H]2O[C@H](CO)[C@@H](O)[C@H](O)[C@H]2O)[C@H](O)[C@H]1O)[C@H](O)CO 23%, COCCCC/C(=N\OCCN)c1ccc(C(F)(F)F)cc1 8.5% [at 75.8 µM], CN(C)c1ncnc2ccc(-c3ccoc3)cc12 6.97%, COC(=O)N1CCC2(CCCN(c3ccc(-c4ccccc4)cc3)C2)CC1 27.7%, C[C@]12CCC(=O)C=C1CC[C@@H]1[C@@H]2C(=O)C[C@@]2(C)[C@H]1CC[C@]2(O)C(=O)CO, CCCc1nc(C(C)(C)O)c(C(=O)OCc2oc(=O)oc2C)n1Cc1ccc(-c2ccccc2-c2nn[nH]n2)cc1 20.8%, Cn1cccc1C(=O)N1CCC[C@@]2(CCN(c3ccccn3)C2)C1 15.7%, CC/C=C\C/C=C\C/C=C\C/C=C\C/C=C\CCCC(=O)O 26.8%, CSc1nc(C(=O)N2CCOc3ccc(CN4CCN(Cc5ccccn5)CC4)cc3C2)cs1 20.8%, Cn1cccc1C(=O)N1CCC[C@@]2(CCN(Cc3ccccc3)C2)C1 13.3%, O=C(O)CNC(=O)CNC(=O)CNC(=O)CSC(=O)c1ccccc1 10.1%, CC1(C)S[C@@H]2[C@H](N=CN3CCCCCC3)C(=O)N2[C@H]1C(=O)O 23.4%, COc1ccc(C(=O)N2CCC3(CCN(C(=O)Nc4cccc(C#N)c4)CC3)CC2)cc1 11.3%, Nc1ccc(C(=O)O)c(O)c1 (tested in a mixture with another compound) 16%, COCCn1c(=O)c(-c2cc(F)cc(F)c2)nc2cnc(OCc3ccccc3)nc21 -5.07%, Cc1ncc2c(c1CNS(=O)(=O)N(C)C)CCN(C(=O)c1ccc(-c3ccc(F)cc3)cc1)C2 7.52%, O=S1(=O)CCO[C@H]2Cc3ccccc3[C@H]2N1Cc1ccc(Cl)cc1 2.12%, Cc1ncoc1C(=O)N1CCOc2ccc(CN3CCN(c4ccccn4)CC3)cc2C1 8.39%, O=S(=O)(c1ccccc1)N1CCC[C@@]2(CCN(c3ccccc3)C2)C1 13.4%, CC#CCOC(=O)c1c(C)nc2sc3c(c2c1N)CC[C@@H](O)C3 -4.85%, COc1cccc(Cn2cc(-c3cccc(C(F)(F)F)c3)nn2)c1 -16.7%, CC1(C)C(OC(=O)CCC(=O)O)CC[C@]2(C)C1CC[C@@]1(C)C2C(=O)C=C2[C@@H]3C[C@@](C)(C(=O)O)CC[C@]3(C)CCC21C (stereo partly drawn) 20.1%, CC(=O)[C@]1(O)Cc2c(O)c3c(c(O)c2[C@@H](O[C@H]2C[C@H](N)[C@H](O)[C@H](C)O2)C1)C(=O)c1c(O)cccc1C3=O, N[C@H](CC(=O)O)C(=O)O, Cc1ccc(SCCN2CCC(O)CCC2=O)cc1 (stereo not drawn) 0.106%, CCOC(=O)N1CCC(=C2c3ccc(Cl)cc3CCc3cccnc32)CC1, Oc1cc(-c2nc3ccccc3s2)cc2c1OCCN(Cc1cccn1-c1ccc(Cl)cn1)C2 4.69%, COc1cc2c(cc1OC)C1C(=O)c3c(O)cc4c(c3OC1CO2)C=CC(C)(C)O4 (stereo not drawn) -19%, COc1ccccc1C(=O)N[C@@H]1c2ccccc2C2(CCN(Cc3nccs3)CC2)[C@H]1OC 13%, COc1cc(O)c2c(=O)cc(-c3ccc(OC)c(-c4c(O)cc(O)c5c(=O)cc(-c6ccc(O)cc6)oc45)c3)oc2c1 0.856%, O=C(NOCC1CC1)c1ccc(F)c(F)c1Nc1ccc(I)cc1Cl 22.6%, COc1ccc(-c2nc3cnc(N4CCN(C)CC4)nc3n(C3CC3)c2=O)cc1 9.03%, COc1ccc(C(=O)CCC(=O)O)c2ccccc12 10.2%, CCCN1CC(CSC)C[C@H]2c3cccc4[nH]cc(c34)C[C@H]21 (stereo partly drawn) 12.6%, CCCCN1CCC(n2c(=O)[nH]c3ccccc32)CC1 4.94% [at 75.8 µM], CCCCN1CC[C@H]2C=CC[C@@H](C(=O)Nc3ccc(Cl)cc3Cl)[C@H]2C1=O -4.42%, NC(=O)c1ccccc1O 13.2%, Cc1cccc2cc(CN(C(=O)c3ccc(-c4ccc(F)cc4)cc3)C3CC3)c(N3CCC(O)CC3)nc12 -8.44%, COc1cc(CN2CCCC(n3cc(C(=O)N4CCCCC4)nn3)C2)cc(OC)c1 (stereo not drawn) -2.79%, COCCn1c(=O)c(-c2cccs2)nc2cnc(N3CCNCC3)nc21 -1.88%
